Measurements from the RNAGym collection of RNA variant scans (doi:10.1093/nar/gkz1192).
The source gives no read counts; variants with many changes may rest on few reads.

B1: CPEB3 Ribozyme (parent)
chain: UAACAGGGGGCCACAGCAGAAGCGUUCACGUCGCAGCCCCUGUCAGAUUCUGGUGAAUCUGCGAAUUCUGCUGUAUAUCUC

Variants of: B1
Assay: self-cleavage, relative activity (ratio to wild type); higher = more cleavage; in vitro, sequencing
How it was run: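 Relative activity was defined as the cleaved/total read fraction for a variant divided by the same fraction for the unmutated ribozyme. CPEB3 self-cleaving ribozyme libraries were made by rounds of error-prone PCR, barcoded, and transcribed in vitro with T7 RNA polymerase for 5 hours at 37°C, and cleavage ran through transcription plus a 15 min DNase I step before EDTA. Illumina sequencing of template-switched reverse transcripts gave the reads, and DNA sequencing mapped the barcodes. Averages come from three batches, using variants with at least 5 reads.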
In the case of A15G A45G U51C A77G, the self-cleavage is reported as 0.46.
Variant A15G U26A U72C has a self-cleavage of 1.11.
Variant A15G U26A U66C has a self-cleavage of 0.23.
Variant A15G G24C A28G A45G U49C has a self-cleavage of 0.35.
In the case of A15G C38G U43A, the self-cleavage is reported as 0.19.
For A15G U26C U54A U60A, the self-cleavage was 0.23.
Work on A15G U25G A35G U48C U72C U76C yielded a self-cleavage of 0.09.
A15G U25C A45G A64G A75G showed a self-cleavage of 0.2.
For A15G G16C U25A U31C, the self-cleavage was 0.06.
For A15U A18U A35C U51C U60A A64G, the self-cleavage was 0.15.
A15U C62U A64G showed a self-cleavage of 0.16.
With A15G U26A U31A A35G U41A U49C the self-cleavage was 0.2.
With A15G A35U U49C the self-cleavage was 0.33.
In the case of A15U A28G U74C A75U, the self-cleavage is reported as 0.16.
A15G U41A A45G C81U showed a self-cleavage of 0.04.
In the case of A15U U25A U31A, the self-cleavage is reported as 0.04.
With A15G C29U U31C U60C U67C U69A the self-cleavage was 0.06.
A15G U26C U66C showed a self-cleavage of 0.31.
A15G U26A U43G G63A gave a self-cleavage of 0.12.
A15U A20G G22C showed a self-cleavage of 0.22.
For A15U A28G U41C A77G, the self-cleavage was 0.28.
A15G U26C A56U U74C showed a self-cleavage of 0.21.
In the case of A15G C39U A47G U58C, the self-cleavage is reported as 0.92.
A15U A28C U31G A47U A75U showed a self-cleavage of 0.04.
A15G U26A C34G A35U showed a self-cleavage of 0.27.
A15G A35U A45G gave a self-cleavage of 0.5.
A15U A56U U69A A75G A77G showed a self-cleavage of 0.2.
A15G G30C C59U U80C gave a self-cleavage of 0.1.
A15U A21G U26C U43C U72C gave a self-cleavage of 0.21.
For A15G G16U A18G U72C, the self-cleavage was 0.4.
Variant A15U A21G U31A A64G has a self-cleavage of 0.27.
A15G A57G U58C U67C gave a self-cleavage of 0.09.
A15U A35G G53U A64G U69C A77G showed a self-cleavage of 0.7.
In the case of A15U A28U U31A U43C U54C, the self-cleavage is reported as 0.09.
With A15U A28U U54C the self-cleavage was 0.56.
With A15U C32U U74C the self-cleavage was 0.12.
For A15U A21G G30A U31C U51C, the self-cleavage was 0.23.
A15U A18G G24A A28G showed a self-cleavage of 0.2.
Work on A15U G19U U58C U67C yielded a self-cleavage of 0.09.
Work on A15G A45G U54C yielded a self-cleavage of 0.63.
A15U A21G U48C gave a self-cleavage of 0.16.
A15G U26G A45G U58C showed a self-cleavage of 0.17.
A15G C34U U51A U74A gave a self-cleavage of 0.22.
A15G A35U U51A U72A showed a self-cleavage of 0.17.
For A15U U25C C62U U69A, the self-cleavage was 0.08.
A15G U43C A56U U58A U66C gave a self-cleavage of 0.08.
A15G U41A G46A gave a self-cleavage of 0.08.
A15U A56G U60C U67A A75C gave a self-cleavage of 0.16.
In the case of A15U A47G A64U U78C, the self-cleavage is reported as 0.12.
In the case of A15U G55U G70A, the self-cleavage is reported as 0.2.
A15G A45G A64U U76A gave a self-cleavage of 0.38.
In the case of A15U C23A U26A U72A G73A, the self-cleavage is reported as 0.45.
With A15G A28U C29U A35U U49C the self-cleavage was 0.08.
Variant A15U A18U U31C U54A A56G U58A has a self-cleavage of 0.11.
Work on A15G U31A C71A yielded a self-cleavage of 0.09.
Variant A15G C40U U58C A65G U67C has a self-cleavage of 0.06.
A15U A18G U25C U58A U72A showed a self-cleavage of 0.07.
Variant A15G U41C A57G U78C has a self-cleavage of 0.41.
With A15G A45G U80A the self-cleavage was 0.52.
Variant A15G U25A A45U U66C U72C has a self-cleavage of 0.16.
A15G G33A G55A C68A showed a self-cleavage of 0.08.
Variant A15G U41C U43A A56U has a self-cleavage of 0.23.
A15U C29G U49C U51C U76C showed a self-cleavage of 0.06.
Work on A15U C17A A35G C59U yielded a self-cleavage of 0.43.
For A15U A18G U72A U78C, the self-cleavage was 0.41.
Work on A15G U69C A75G U78C yielded a self-cleavage of 0.13.
A15G U26C U41C U60A gave a self-cleavage of 0.06.
Variant A15G U31A A47U U72C A75G U76C has a self-cleavage of 0.21.
Variant A15G U31A C34A U60C U69C A77G has a self-cleavage of 0.17.
In the case of A15U A18G U25C A64G, the self-cleavage is reported as 0.24.
For A15U G42A U49C U78A, the self-cleavage was 0.14.
For A15G U25C A47G U78A, the self-cleavage was 0.07.
With A15G A35U A45C U54C U67C the self-cleavage was 0.09.
For A15U A28C U49A U58A A65U, the self-cleavage was 0.08.
A15G U49C A64G showed a self-cleavage of 0.2.
Work on A15G C29A U41A U48C yielded a self-cleavage of 0.31.
Variant A15U A28G A45C has a self-cleavage of 0.24.
Work on A15G U26A A28G U51A U66C A75G yielded a self-cleavage of 0.07.
In the case of A15U A35G U49C, the self-cleavage is reported as 0.83.
A15G U26A U49C A75U U80C gave a self-cleavage of 0.53.
Work on A15G U31A U49A yielded a self-cleavage of 0.27.
Variant A15U C29A U49C U72C has a self-cleavage of 0.29.
A15G C23U A28U U41G A45G showed a self-cleavage of 0.08.
A15G A28G U54C U80C gave a self-cleavage of 0.54.
Variant A15U A18G A28G U80C has a self-cleavage of 0.26.
A15G U43G U54C U58C U67A showed a self-cleavage of 0.
Work on A15G U26C C37U yielded a self-cleavage of 0.14.
A15G G36A A65G showed a self-cleavage of 0.13.
A15G U51A U66A gave a self-cleavage of 0.31.
Work on A15G U26C C29U U74C yielded a self-cleavage of 0.37.
A15U A28G C34U U43A G63A U69A gave a self-cleavage of 0.04.
Variant A15U A56U A57G has a self-cleavage of 0.19.
For A15G U26C A35U A65G, the self-cleavage was 0.21.
A15G U67C U78C showed a self-cleavage of 0.16.
With A15G A35G U48A U54G U78C the self-cleavage was 0.4.
For A15U A18G U43C U69C, the self-cleavage was 0.41.
A15G U48G U54A A64G gave a self-cleavage of 0.07.
Variant A15G U43A A57G C79A has a self-cleavage of 1.01.
With A15U C27U G63A the self-cleavage was 0.17.
In the case of A15U A35U C44U U76C, the self-cleavage is reported as 0.17.
Variant A15G A45U A47G A56G has a self-cleavage of 0.16.
Variant A15G U25C C29U has a self-cleavage of 0.16.
A15U G42A U58C U80C gave a self-cleavage of 0.03.
With A15G U41C A45G U60C A64U A75U the self-cleavage was 0.35.
Work on A15G U25C U43C U60C yielded a self-cleavage of 0.2.
A15U A18U U25G A28G A56G U66A gave a self-cleavage of 0.06.
With A15U A57G A65U the self-cleavage was 0.42.
In the case of A15G U43A U48C U80C, the self-cleavage is reported as 0.7.
In the case of A15G U31C U58C U66G U78C U80C, the self-cleavage is reported as 0.07.
With A15G U31A U54C the self-cleavage was 0.24.
In the case of A15U A47G U48C, the self-cleavage is reported as 0.24.
Variant A15U A28G U72A A75C U78C has a self-cleavage of 0.59.
For A15U U25C A35U U54C U74A, the self-cleavage was 0.18.
Variant A15G A45U U67A has a self-cleavage of 0.18.
In the case of A15U A35U A47G A56G G61A, the self-cleavage is reported as 0.06.
In the case of A15G A64U U78C, the self-cleavage is reported as 0.29.
In the case of A15G U25C A47G A56G C62U, the self-cleavage is reported as 0.2.
A15G U25C U67C U74C showed a self-cleavage of 0.19.
A15G C29U U43A U54C U80C showed a self-cleavage of 0.25.
For A15U A18U C40U G46U U54C U74C A77U, the self-cleavage was 0.02.
In the case of A15G U60C U66C U80C, the self-cleavage is reported as 0.16.
Variant A15U C27A G53C has a self-cleavage of 0.06.
In the case of A15G G24A A45G U74C, the self-cleavage is reported as 0.13.
Work on A15G C23A U25A C44U yielded a self-cleavage of 0.19.
Variant A15G U49C A64G A75U U78A has a self-cleavage of 0.13.
Variant A15G G52C U60C has a self-cleavage of 0.32.
Work on A15G U41C U66C U67C yielded a self-cleavage of 0.43.
With A15U A20G C62U U69A the self-cleavage was 0.08.
A15U A21G G46U U78C gave a self-cleavage of 0.08.
Variant A15U G30A C34U U67C has a self-cleavage of 0.07.
Variant A15U G30A A45U A77U has a self-cleavage of 0.08.
With A15U A20G U74C the self-cleavage was 0.57.
For A15G U51C U54C G61A G73A U74C U80C, the self-cleavage was 0.61.
For A15G U41A A64G U66A, the self-cleavage was 0.17.
In the case of A15G C59U U69C, the self-cleavage is reported as 0.19.
A15G U26A A45U U51C U60C showed a self-cleavage of 0.11.
A15G C38G U72C gave a self-cleavage of 0.39.
Work on A15G U26C G30A A65G U72C A77G yielded a self-cleavage of 0.1.
In the case of A15G A35U A56G A57G A77G, the self-cleavage is reported as 0.38.
For A15U A21U U43C A45C U51A U67C G70A, the self-cleavage was 0.06.
Work on A15G C38U A57U U69C yielded a self-cleavage of 0.08.
With A15G G33U A35U A65G U78A the self-cleavage was 0.08.
In the case of A15G U49A A56G, the self-cleavage is reported as 0.42.
With A15U C40U U41G A56G the self-cleavage was 0.17.
In the case of A15G C23G U31A, the self-cleavage is reported as 0.07.
A15G A35G A45G U72A U76A showed a self-cleavage of 0.22.
Variant A15U A18C U26A A64G U80A has a self-cleavage of 0.19.
Work on A15G U26C A35U yielded a self-cleavage of 0.13.
With A15G G73A U80C the self-cleavage was 1.23.
In the case of A15U A57G A64G U69C, the self-cleavage is reported as 0.
Variant A15G U41A A47G A65G has a self-cleavage of 0.15.
With A15U A21G U41A U67G the self-cleavage was 0.12.
With A15G U43A A47G A64G the self-cleavage was 0.67.
A15G A45U U80C showed a self-cleavage of 0.54.
A15G U49C A77U U78C gave a self-cleavage of 0.19.
A15G U54C U69C U72G showed a self-cleavage of 0.16.
Variant A15U U25A U48C has a self-cleavage of 0.49.
With A15G U41C U51C A64G the self-cleavage was 0.18.
In the case of A15U A57G U69A U80C, the self-cleavage is reported as 0.61.
A15G C17G A20G A56U U78C gave a self-cleavage of 0.08.
With A15G U43C U51C C62A U69C U78C C81A the self-cleavage was 0.22.
A15U A28G U41A U51A U58C gave a self-cleavage of 0.12.
A15G U41C A47G gave a self-cleavage of 0.62.
In the case of A15G U26A U41C A47G U67A U72C U80C, the self-cleavage is reported as 0.41.
Variant A15G C38U A65G U69C has a self-cleavage of 0.19.
A15G U25C U43G A47U U80C gave a self-cleavage of 0.29.
In the case of A15U A18U A35G U41A A56G, the self-cleavage is reported as 0.31.
